The campaign covered roughly 48,000 compounds. About 450 (0.94%) were called active. Not shown: some 19% with an inconclusive outcome. Calls follow the shape of the dose curve; as a rule, active = well fitted inhibition curve with a large enough effect; inconclusive = small, poorly fitted or top-dose-only effect; inactive = no such curve, though single readings can be large or run the other way. This is one part of the list.
Test: Primary qHTS for Identification of Small Molecule Inhibitors of Huntingtin Promoter Activity; also: nearly all actives have a fitted effect of over 50% in size
Conditions: HEK293 HTT promoter firefly luciferase reporter (activity 0% = vehicle and -100% = no light), 24 h; series mostly up to 57.5 µM; activity change, negative = inhibition: at the top concentration
Summary of the method: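 Firefly luciferase readout (Dual-Glo, 10 min RT) after 24 h, 37 °C compound exposure (final up to 57.5 uM) of HEK293 reporter cells cultured 24 h beforehand; PTC124 at 50 uM final as control inhibitor; activity scaled vehicle 0%, zero RLU -100%.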

SMILES | activity change, negative = inhibition
Cc1nn2c(=O)cc(COC(=O)c3ccccc3NC(=O)C3CCCCC3)nc2s1 | inactive: -11.2%
O=C(NCCc1csc(-c2cccc(F)c2)n1)c1ccco1 | inactive: -13%
COc1cc(-c2cc3n(C)c(C)c(CCC(=O)NC4CCC(C)CC4)c(=O)n3n2)cc(OC)c1OC (stereo not drawn) | inactive: 20.8%
O=C(NC1CCCC1)c1ccc2c(c1)N(Cc1c(F)cccc1Cl)C(=O)c1ccccc1S2 | inactive: -24.6%
COc1cccc2c1Oc1ncccc1N(C(=O)CCC(=O)NCc1ccc(OC(C)C)cc1)C2 | inactive: 1.46%
Cc1nn(CC(=O)NC(C)c2ccccc2)c(=O)c2cc3occc3n12 (stereo not drawn) | inactive: -10.3%
O=C(CSc1nc2c([nH]c3ccccc32)c(=O)n1-c1ccccc1)Nc1ccccc1C(F)(F)F | inactive: -12.9%
NC(=O)COc1ccc(-c2noc(COc3ccc(Cl)cc3)n2)cc1 | inactive: -9.76%
NS(=O)(=O)c1ccc(CCNC(=O)Cn2c(=O)c3cccn3c3ccc(F)cc32)cc1 | inactive: -0.806%
COc1ccc2c(c1)CC(C(=O)Nc1c(C)cc(C)cc1C)CO2 (stereo not drawn) | inactive: -13.6%
COc1cccc(C(=O)NCC(c2ccc3c(c2)OCO3)N2CCN(C)CC2)c1 (stereo not drawn) | inactive: -9.12%
Cc1[nH]c2ccccc2c1C1(O)C(=O)Nc2ccc(Cl)cc21 (stereo not drawn) | inactive: 1.06%
COc1cc(CNCCCSc2nnnn2C)cc(Br)c1OC | inactive: 1.07%
Cc1ccc(-n2c3c(c(=O)[nH]c2=O)C(NC(=O)C(C)(C)C)(C(F)(F)F)C(=O)N3)cc1 (stereo not drawn) | inactive: -7.34%
COc1ccc(OC)c(NC(=O)CCCOc2cc(=O)n(C)c3ccccc23)c1 | inactive: -18.8% [at 11.5 µM]
COc1cccc(NC(=O)CSC2=Nc3ccccc3C3=NC(CCC(=O)NC4CCCCC4)C(=O)N23)c1 (stereo not drawn) | inactive: -9.43%
COc1ccc2c(c1)c(CC(=O)OC/C=C(\C)CC/C=C(\C)CCC=C(C)C)c(C)n2C(=O)c1ccc(Cl)cc1 | inactive: 5.95%
CNC(=O)C1CCC(Cn2c(=O)c3sccc3n(CC(=O)Nc3ccc(C)cc3C)c2=O)CC1 (stereo not drawn) | inactive: -11.1%
Cc1cccc(NC(=O)CSc2nc(=O)n(CCN3CCOCC3)c3c2CCC3)c1 | inactive: -12.5%
COc1cccc(NC(=O)CN2C(=O)COc3ccc(S(=O)(=O)N4CCOCC4)cc32)c1 | inactive: -6.94%
CN(c1nnc(NC(=O)Nc2ccc(Br)cc2)s1)C1CCCCC1 | inactive: 28.2%
Cc1ccc(NC(=O)Nc2csc3c2CCCC3)c(C)c1 | inactive: -7.37%
NC(=O)C1CCN(C(=O)c2ccccc2NC(=O)c2nsc3ccccc23)CC1 | inactive: 37.5%
CCOC(=O)c1c(NC(=O)c2cc(=O)c3c(C)cc(C)cc3o2)sc(C)c1C | inactive: 14.2%

SMILES | activity change, negative = inhibition
COc1ccccc1Nc1nn2c(=O)c3ccc(C(=O)NC4CCCCC4)cc3nc2s1 | inactive: -11.7%
CCOc1ccc(N(CC(=O)NCc2ccc(C)cc2)S(=O)(=O)c2c(C)[nH]c(=O)[nH]c2=O)cc1 | inactive: -6.31%
Brc1ccc(-c2csc(-c3nc(-c4ccc(Br)s4)cs3)n2)cc1 | inactive: 1.1%
CCN1CCN(C(c2cccc(OC)c2)c2c(O)cc(C)n(Cc3ccco3)c2=O)CC1 (stereo not drawn) | inactive: -5.74%
CCc1ccc(NC(=O)c2sc3nc(-c4ccccc4)cn3c2C)cc1 | inactive: -23.4%
COc1cccc(C2C=C(c3ccc(C)cc3)Nc3c(C(=O)Nc4ccc(F)cc4)cnn32)c1OC (stereo not drawn) | inactive: -21.4%
O=C(Nc1ccccc1C(F)(F)F)N1Cc2ccccc2Oc2ncccc21 | inactive: 18.7%
CC(NC(=O)c1ccc(Cn2c(SCc3ccccc3)nc3cccnc32)cc1)c1ccccc1 (stereo not drawn) | inactive: -3.65%
CC(CCc1ccccc1)NC(=O)Cn1ncc2c3ccccc3n(Cc3cccc(Cl)c3)c2c1=O (stereo not drawn) | inactive: 6.69%
COc1ccc(CN(C(=O)c2ccc(OCC(C)C)cc2)C2CCS(=O)(=O)C2)cc1 (stereo not drawn) | inactive: -5.13%
CCc1cccc(-n2nnc(-c3nc(-c4ccc5c(c4)OCO5)no3)c2C)c1 | inactive: -2.95%
Cc1cccc(C(=O)NCc2nnc(SCC(=O)Nc3ccccc3F)n2-c2ccccc2)c1 | inactive: -9.39%
COc1ccc(NC(=O)CSc2nc(-c3ccccc3)c3ccccc3n2)cc1 | inactive: -2.42%
CCN(CC)Cc1ccc2cc(COC(=O)Nc3ccc(C(=O)NO)cc3)ccc2c1 | inactive: 161%
CC1CN(C(=O)Nc2ccc(C(=O)NCCc3ccc(Cl)cc3)cc2)c2ccccc2S1 (stereo not drawn) | inactive: 8.56%
COCCn1c(C)cc(O)c(C(c2ccc(OC)cc2)N2CCCCC2)c1=O (stereo not drawn) | inactive: -17%
CC(=O)Oc1cccc2c1C(=O)c1c(OC(C)=O)cc(C(=O)O)cc1C2=O | inactive: -1.96%
Cc1ccccc1NC(=O)CSCn1nnc2c(=O)[nH]c(Cc3ccc(F)cc3)nc21 | inactive: -7.51%
CCCC(=O)Nc1ccc2nc(SCCOc3ccccc3)sc2c1 | inactive: -6.28%
CCCN1Cc2cccc(C(=O)Nc3ccccc3F)c2C1=O | inactive: -12.1%
COc1ccc(Cl)cc1NC(=O)c1c(NCc2cccnc2)sc2c1CCCC2 | inactive: -27.4%
CC(C)(C)OC(=O)N1CCC(c2c(C(=O)NCCc3ccsc3)cnn2-c2ccc(F)cc2F)CC1 | inactive: -13.3%
COc1ccccc1C(=O)Nc1nnc(S(=O)(=O)N2CCCCC2)s1 | inactive: 33%
COc1ccc2ncc3c(-c4ccccc4)nn(-c4ccc(C)c(C)c4)c3c2c1 | inactive: -5.83%
